Assay results taken from the supplement of paper PMC8728848.
The other results are listed elsewhere or left out.

What was measured:
Assay in all cases: glycan array binding signal (z-score within array); higher = stronger binding
Settings in all cases: glycan notation: IUPAC condensed, linker removed
[1] = biological target: GlcNAc(b1-3)Gal(b1-4)GlcNAc(b1-3)Gal(b1-4)GlcNAc(b1-3)GalNAc
How it was run: (§1)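 From the Consortium for Functional Glycomics database, 3228 arrays were curated, keeping only those whose protein sequence was available. Binding is given as a within-array Z-score averaged across arrays sharing a protein sequence and across linkers. Negative Z-scores can be read as non-binding.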

[2] = biological target: GlcNAc(b1-3)Gal(b1-4)GlcNAc(b1-3)GalNAc
How it was run: as §1

[3] = biological target: GlcNAc(b1-3)Gal(b1-4)GlcNAc(b1-3)[GlcNAc(b1-3)Gal(b1-4)GlcNAc(b1-3)]GalNAc
How it was run: as §1

[4] = biological target: GlcNAc(b1-3)Gal(b1-4)GlcNAc(b1-6)[Gal(b1-3)]GalNAc
How it was run: as §1

[5] = biological target: GlcNAc(b1-3)Gal(b1-4)GlcNAc(b1-6)[GlcNAc(b1-3)Gal(b1-3)]GalNAc
How it was run: as §1

[6] = biological target: GlcNAc(b1-3)Gal(b1-4)GlcNAc(b1-6)[GlcNAc(b1-3)]Gal(b1-4)GlcNAc
How it was run: as §1

GlcNAc(b1-3)GalNAc = biological target: GlcNAc(b1-3)GalNAc
How it was run: as §1

GlcNAc(b1-3)Man = biological target: GlcNAc(b1-3)Man
How it was run: as §1

[7] = biological target: GlcNAc(b1-3)[GlcNAc(b1-4)][GlcNAc(b1-6)]GlcNAc
How it was run: as §1

[8] = biological target: GlcNAc(b1-3)[GlcNAc(b1-6)]Gal(b1-4)GlcNAc
How it was run: as §1

[9] = biological target: GlcNAc(b1-3)[GlcNAc(b1-6)]GalNAc
How it was run: as §1

[10] = biological target: GlcNAc(b1-4)Gal(b1-4)GlcNAc
How it was run: as §1

GlcNAc(b1-4)GlcNAc = biological target: GlcNAc(b1-4)GlcNAc
How it was run: as §1

[11] = biological target: GlcNAc(b1-4)GlcNAc(b1-4)GlcNAc
How it was run: as §1

[12] = biological target: GlcNAc(b1-4)GlcNAc(b1-4)GlcNAc(b1-4)GlcNAc(b1-4)GlcNAc
How it was run: as §1

[13] = biological target: GlcNAc(b1-4)GlcNAc(b1-4)GlcNAc(b1-4)GlcNAc(b1-4)GlcNAc(b1-4)GlcNAc
How it was run: as §1

[14] = biological target: GlcNAc(b1-4)[GlcNAc(b1-6)]GalNAc
How it was run: as §1

[15] = biological target: GlcNAc(b1-6)Gal(b1-4)GlcNAc
How it was run: as §1

GlcNAc(b1-6)GalNAc = biological target: GlcNAc(b1-6)GalNAc
How it was run: as §1

[16] = biological target: GlcNAc6S(b1-3)Gal(b1-4)GlcNAc
How it was run: as §1

Kdn(a2-3)Gal(b1-3)GalNAc = biological target: Kdn(a2-3)Gal(b1-3)GalNAc
How it was run: as §1

Kdn(a2-3)Gal(b1-3)GlcNAc = biological target: Kdn(a2-3)Gal(b1-3)GlcNAc
How it was run: as §1

Kdn(a2-3)Gal(b1-4)Glc = biological target: Kdn(a2-3)Gal(b1-4)Glc
How it was run: as §1

Kdn(a2-3)Gal(b1-4)GlcNAc = biological target: Kdn(a2-3)Gal(b1-4)GlcNAc
How it was run: as §1

[17] = biological target: Kdn(a2-3)Gal(b1-4)[Fuc(a1-3)]GlcNAc
How it was run: as §1

Kdn(a2-6)Gal(b1-4)GlcNAc = biological target: Kdn(a2-6)Gal(b1-4)GlcNAc
How it was run: as §1

[18] = biological target: Man(a1-2)Man(a1-2)Man(a1-3)Man
How it was run: as §1

[19] = biological target: Man(a1-2)Man(a1-2)Man(a1-6)[Man(a1-3)]Man
How it was run: as §1

Man(a1-2)Man(a1-3)Man = biological target: Man(a1-2)Man(a1-3)Man
How it was run: as §1

[20] = biological target: Man(a1-2)Man(a1-3)[Man(a1-2)Man(a1-6)]Man
How it was run: as §1

[21] = biological target: Man(a1-2)Man(a1-3)[Man(a1-2)Man(a1-6)]Man(a1-6)[Man(a1-2)Man(a1-2)Man(a1-3)]Man
How it was run: as §1

[22] = biological target: Man(a1-2)Man(a1-3)[Man(a1-2)Man(a1-6)]Man(a1-6)[Man(a1-2)Man(a1-2)Man(a1-3)]Man(b1-4)GlcNAc(b1-4)GlcNAc
How it was run: as §1

[23] = biological target: Man(a1-2)Man(a1-3)[Man(a1-6)]Man(a1-6)[Man(a1-2)Man(a1-3)]Man(b1-4)GlcNAc(b1-4)GlcNAc
How it was run: as §1

[24] = biological target: Man(a1-2)Man(a1-6)[Man(a1-3)]Man(a1-6)[Man(a1-2)Man(a1-2)Man(a1-3)]Man
How it was run: as §1

[25] = biological target: Man(a1-2)Man(a1-6)[Man(a1-3)]Man(a1-6)[Man(a1-2)Man(a1-2)Man(a1-3)]Man(b1-4)GlcNAc(b1-4)GlcNAc
How it was run: as §1

Man(a1-3)[Man(a1-6)]Man = biological target: Man(a1-3)[Man(a1-6)]Man
How it was run: as §1

[26] = biological target: Man(a1-3)[Man(a1-6)]Man(a1-6)[Man(a1-2)Man(a1-3)]Man(b1-4)GlcNAc(b1-4)GlcNAc
How it was run: as §1

B1: PX14367B-bvu-516-23-516 (Bacteroides vulgatus) (protein)
chain: LDTIPTTYVDAGSVFGKTGDAEKVLNGGWNYLMETFNSYANPGYGAMLRANDAMGSDVVLNSKYGFRTHNEFSAIYGKGGTNTLSWLLAYRVINDCNGVLDNIDAAEGTQADRNRIKGQALALRGFLYLHLASCYSFAIDKDPDAVCAPIYTQSTDETIAAEGKPASSVSEVYAQSINDLEEALELIPETYVRDAKHKIDNEVVLGILSRACLYARQWEKAKTYSDKLLAKDNYLMTESEYKAGFNSVDNKEWIWGHAQTNDQSNASYQFHYLDTTTKGSYYYSFNVDPYFRDLFEDGDYRKEMLFWATDPGADVESAAYVWMRNSKFRFRDIENQLGDIVLMRVAEIYLINAEAKAHLNDPDAINKLNDLKTARGAKTIHTNLSQQDLLETIWLERRKELWGEGFSLIDIIRNQQTVVRNAYPEGPIDYIYTDENGQTHTLKKKTQGHRFFNFPDKSAFCPNSKYYLYRITDSEELANKNLYKDHPKLSIYTK
glycan array binding signal (z-score) [1]: -0.12 | glycan array binding signal (z-score) [2]: -0.208 | glycan array binding signal (z-score) [3]: -0.3 | glycan array binding signal (z-score) [4]: -0.323 | glycan array binding signal (z-score) [5]: -0.205 | glycan array binding signal (z-score) [6]: -0.263 | glycan array binding signal (z-score) (GlcNAc(b1-3)GalNAc): -0.292 | glycan array binding signal (z-score) (GlcNAc(b1-3)Man): -0.272 | glycan array binding signal (z-score) [7]: -0.212 | glycan array binding signal (z-score) [8]: -0.16 | glycan array binding signal (z-score) [9]: -0.258 | glycan array binding signal (z-score) [10]: -0.226 | glycan array binding signal (z-score) (GlcNAc(b1-4)GlcNAc): -0.329 | glycan array binding signal (z-score) [11]: -0.348 | glycan array binding signal (z-score) [12]: -0.245 | glycan array binding signal (z-score) [13]: -0.283 | glycan array binding signal (z-score) [14]: -0.238 | glycan array binding signal (z-score) [15]: -0.342 | glycan array binding signal (z-score) (GlcNAc(b1-6)GalNAc): -0.317 | glycan array binding signal (z-score) [16]: -0.249 | glycan array binding signal (z-score) (Kdn(a2-3)Gal(b1-3)GalNAc): -0.198 | glycan array binding signal (z-score) (Kdn(a2-3)Gal(b1-3)GlcNAc): -0.341 | glycan array binding signal (z-score) (Kdn(a2-3)Gal(b1-4)Glc): -0.366 | glycan array binding signal (z-score) (Kdn(a2-3)Gal(b1-4)GlcNAc): -0.299 | glycan array binding signal (z-score) [17]: -0.292 | glycan array binding signal (z-score) (Kdn(a2-6)Gal(b1-4)GlcNAc): -0.281 | glycan array binding signal (z-score) [18]: -0.326 | glycan array binding signal (z-score) [19]: -0.278 | glycan array binding signal (z-score) (Man(a1-2)Man(a1-3)Man): -0.313 | glycan array binding signal (z-score) [20]: -0.409 | glycan array binding signal (z-score) [21]: -0.216 | glycan array binding signal (z-score) [22]: -0.354 | glycan array binding signal (z-score) [23]: -0.362 | glycan array binding signal (z-score) [24]: -0.304 | glycan array binding signal (z-score) [25]: -0.351 | glycan array binding signal (z-score) (Man(a1-3)[Man(a1-6)]Man): -0.383 | glycan array binding signal (z-score) [26]: -0.156
